{
  "source": "PubChem BioAssay AID588855",
  "about": "(National Center for Advancing Translational Sciences (NCATS), 2011)",
  "note": "Several values for one entry are separate records, joined by “and”; a condition that tells them apart may be missing. Identical values can stand only once. About 5,000 (1.2%) of roughly 410,000 compounds were called active. Inconclusive results, whose numbers are uncertain, are shown with a selection of clear calls. Calls follow the shape of the dose curve; as a rule, active = well fitted inhibition curve with a large enough effect; inconclusive = small, poorly fitted or top-dose-only effect; inactive = no such curve, though single readings can be large or run the other way. Potencies of inconclusive entries are doubtful fits and often do not repeat. Potency is read from the fitted curve at half-maximal effect; tags tell the direction and shape of the fitted curve.",
  "data": [
    {"assay": "qHTS for Inhibitors of TGF-b; also: nearly all actives have a fitted effect of over 65% in size", "conditions": "HepG2 CAGA-GFP TGF-b/SMAD3 reporter, GFP fluorescence, 18 h, TGF-beta stimulated, 500 pg/mL final; series mostly up to 46.1 µM", "summary_of_the_method": "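TGF-beta reporter screen: HEPG2 CAGA-GFP, 1% FBS, 500 pg/mL TGF-beta final, 18 h; per-cell GFP summed per well; curves fitted and categorized by class.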", "values": [
      {"smiles": "O=c1[nH]c2ccccc2n1C1CCN(C(c2ccccc2OC(F)(F)F)c2nnnn2-c2ccc3c(c2)OCCO3)CC1", "note": "(centres undefined)", "Potency": "active: 8.91 µM"},
      {"smiles": "CN1C[C@@H]2[C@@H]3C(=O)N(Cc4ccccc4)C(=O)[C@@H]3[C@](Cc3ccccc3)(C1=O)N2C(=O)c1ccc(F)cc1", "Potency": "inconclusive: 6.31 µM [inhibitor, single point]"},
      {"smiles": "COC(=O)C1=C(c2ccc(OC(F)(F)F)cc2)C[C@@H]2CC[C@H]1N2C(=O)NCc1cccc2ccccc12", "Potency": "inconclusive: 22.4 µM [inhibitor, single point]"},
      {"smiles": "CN1C(=O)C(C)(C2=CCCCC2)C(=O)NC1=S", "note": "(centres undefined)", "Potency": "inconclusive: 1.26 µM [inhibitor, full curve, poor fit]"},
      {"smiles": "CC(=O)O[C@H]1CCC2C3CCC4=CC(=O)CCC4=C3C=C[C@@]21C", "note": "(some centres undefined)", "Potency": "inconclusive: 35.5 µM [inhibitor, partial curve, poor fit]"},
      {"smiles": "N[C@@H](Cc1c[nH]c2ccccc12)c1nnc(SCc2ccc(Cl)cc2)o1", "Potency": "inconclusive: 20 µM [inhibitor, single point]"},
      {"smiles": "COC(=O)C1=C(c2ccc(F)cc2OCc2ccccc2)C[C@@H]2CC[C@H]1N2C(=O)NC1CCCCC1", "Potency": "inconclusive: 12.6 µM [inhibitor, partial curve, poor fit]"},
      {"smiles": "O=C1NCN(c2ccccc2)C12CCN(C(c1cc3ccccc3o1)c1nnnn1-c1ccc3c(c1)OCCO3)CC2", "note": "(centres undefined)", "Potency": "inconclusive: 12.6 µM [inhibitor, partial curve, poor fit]"},
      {"smiles": "Cc1ccc(CNC(=O)c2ccc(CSc3nc4ccncc4n3Cc3ccc(C)cc3)cc2)cc1", "Potency": "inconclusive: 10 µM [inhibitor, partial curve, poor fit]"},
      {"smiles": "Cc1ccc(-c2ccc(=O)n(CCC(=O)N3CCC4(CC3)OCCO4)n2)cc1", "Potency": "inconclusive: 1.12 µM [inhibitor, partial curve, poor fit]"},
      {"smiles": "CN1CCC(O)(c2ccc(Cl)cc2)C(C(=O)c2ccc(Cl)cc2)C1", "note": "(centres undefined)", "Potency": "inconclusive: 25.1 µM [inhibitor, single point]"},
      {"smiles": "COc1ccc(CNCCc2ccc(Cl)cc2)c(OC)c1OC", "Potency": "inactive"},
      {"smiles": "CN1CCN(/N=C/c2c(O)n(Cc3ccc(F)cc3)c(=O)[nH]c2=O)CC1", "Potency": "inactive"},
      {"smiles": "CC(=O)Nc1ccc(NC(=O)CN(c2ccc(C34CC5CC(CC(C5)C3)C4)cc2)S(C)(=O)=O)cc1", "Potency": "inconclusive: 35.5 µM [inhibitor, single point]"},
      {"smiles": "C/C(=N\\NC(N)=S)C12CC3CC(CC(C3)C1)C2", "Potency": "active: 11.2 µM"},
      {"smiles": "O=C(NCC1=C(c2ccc3ccccc3c2)C[C@@H]2CC[C@H]1N2Cc1ccco1)c1ccncc1", "Potency": "inconclusive: 22.4 µM [inhibitor, single point]"},
      {"smiles": "CC(=NCCO)c1c(O)n(C2CCCCC2)c(=O)[nH]c1=O", "Potency": "inconclusive: 0.794 µM [inhibitor, full curve, poor fit]"},
      {"smiles": "NC(CCc1ccccc1)c1csc(NC(=O)Nc2ccccc2Oc2ccccc2)n1", "note": "(centres undefined)", "Potency": "inconclusive: 14.1 µM [inhibitor, partial curve, poor fit]"},
      {"smiles": "Cc1cccc(CNCCc2c[nH]c3ccccc23)c1", "Potency": "inconclusive: 35.5 µM [inhibitor, single point]"},
      {"smiles": "c1ccc2c(CNC3CCCCCC3)c[nH]c2c1", "Potency": "inconclusive: 22.4 µM [inhibitor, single point]"},
      {"smiles": "COC(=O)C1=C(c2ccc(OC)c(OC)c2)C[C@@H]2CC[C@H]1N2C(=O)N1CCC(O)CC1", "Potency": "inconclusive: 35.5 µM [inhibitor, single point]"},
      {"smiles": "CCOC(=O)C1SC2(C(F)(F)C(F)F)CC1(O)c1c(c(OC)c3occc3c1OC)O2", "note": "(centres undefined)", "Potency": "inconclusive: 3.55 µM [inhibitor, full curve, poor fit]"},
      {"smiles": "COC(=O)C1CN(C#N)N(c2ccc(Cl)cc2)C12c1ccccc1-c1ccccc12", "note": "(centres undefined)", "Potency": "active: 5.01 µM"},
      {"smiles": "Cc1ccc(S(=O)(=O)N2CCCc3cc(NS(=O)(=O)c4cc(C)ccc4C)ccc32)cc1", "Potency": "inconclusive: 0.562 µM [inhibitor, full curve, poor fit]"},
      {"smiles": "Cc1cccc(OCC(=O)N2CCN(CCc3ccccn3)CC2)c1", "Potency": "inconclusive: 14.1 µM [inhibitor, single point]"},
      {"smiles": "COc1ccc(C(=O)Nc2nnc(S(=O)(=O)N(CC(C)C)c3ccc(C)cc3)s2)cc1OC", "Potency": "inconclusive: 0.112 µM [inhibitor, full curve, poor fit]"},
      {"smiles": "O=C(Nc1ccc(F)c([N+](=O)[O-])c1)c1cccn(Cc2ccccc2)c1=O", "Potency": "inactive"},
      {"smiles": "COc1ccc2cc1Oc1ccc(cc1)C[C@H]1c3cc(c(OC)cc3CCN1C)Oc1c(OC)c(OC)cc3c1[C@H](C2)N(C)CC3", "Potency": "inconclusive: 20 µM [inhibitor, single point] and inconclusive: 35.5 µM [inhibitor, single point]"},
      {"smiles": "CCOC(=O)CC1c2ccccc2-n2nncc2CN1Cc1ccc(OC)cc1", "note": "(centres undefined)", "Potency": "inactive"},
      {"smiles": "O=[N+]([O-])c1cc(Cl)c(O)c(-[n+]2c(-c3ccccc3)cc(-c3ccccc3)cc2-c2ccccc2)c1", "Potency": "inconclusive: 35.5 µM [inhibitor, single point]"},
      {"smiles": "CC1CCN(CC#CCOc2ccc(Cl)cc2)CC1", "Potency": "inconclusive: 22.4 µM [inhibitor, single point]"},
      {"smiles": "O=C(O)c1cc[c]([Hg][Cl])cc1", "Potency": "inconclusive: 20 µM [inhibitor, single point]"},
      {"smiles": "COc1ccc(OC)c(N=Cc2c(O)[nH]c(=O)[nH]c2=O)c1", "Potency": "inconclusive: 35.5 µM [inhibitor, single point]"},
      {"smiles": "CN(C)c1ccc(CNC(=O)Cn2c(=O)oc3cc(S(=O)(=O)N4CCCCCC4)ccc32)cc1", "Potency": "inconclusive: 15.8 µM [inhibitor, partial curve, poor fit]"},
      {"smiles": "C/C=C(\\C)C(=O)N[C@@H](c1ccccc1)[C@@H](O)C(=O)O[C@H]1C[C@@]2(O)[C@@H](OC(=O)c3ccccc3)C3[C@](C)(C(=O)[C@H](OC(C)=O)C(=C1C)C2(C)C)[C@H](O)C[C@H]1OC[C@@]31OC(C)=O", "note": "(some centres undefined)", "Potency": "inconclusive: 28.2 µM [inhibitor, single point]"},
      {"smiles": "CCN(CC)P(=O)(Nc1ccc([N+](=O)[O-])cc1)c1c(C)nn(CCC#N)c1NC(=O)c1ccc(Cl)cc1Cl", "note": "(centres undefined)", "Potency": "inconclusive: 35.5 µM [inhibitor, single point]"},
      {"smiles": "CC(=O)O/C(=C1\\CC2C3CC=C4CC(OC(C)=O)CCC4(C)C3CCC2(C)C1=O)C(F)(F)F", "note": "(centres undefined)", "Potency": "inactive"},
      {"smiles": "CCOC(=O)Cn1cc(C=C2C(=O)N(C)C(=O)N(C)C2=O)c2ccccc21", "Potency": "active: 7.08 µM"},
      {"smiles": "COc1cccc(OC)c1C1=NCC(=O)Nc2c1oc1ccc(Br)cc21", "Potency": "active: 15.8 µM"},
      {"smiles": "O=C(Nc1cccc(C(F)(F)F)c1)C1CCCN1S(=O)(=O)c1cccc2nsnc12", "note": "(centres undefined)", "Potency": "inconclusive: 12.6 µM [inhibitor, partial curve, poor fit]"},
      {"smiles": "CCN1C(=O)N(CC)C(=O)C2(Cc3ccccc3N3CCN(c4ccccc4)CC32)C1=O", "note": "(centres undefined)", "Potency": "inconclusive: 3.16 µM [inhibitor, full curve]"},
      {"smiles": "COc1ccc2c(c1)NP(=S)(Oc1ccccc1)N2", "note": "(centres undefined)", "Potency": "inconclusive: 3.55 µM [inhibitor, single point]"},
      {"smiles": "CC(C)(C)c1csc(NC(=O)Nc2ccccc2)n1", "Potency": "inconclusive: 35.5 µM [inhibitor, single point]"},
      {"smiles": "Cc1ccc(-n2nc3c(N4CCC(C(=O)NCc5ccccc5Cl)CC4)nnc(C)c3c2C)cc1", "Potency": "inconclusive: 2.51 µM [inhibitor, full curve]"},
      {"smiles": "O=C1NC(=S)N(c2ccccc2F)C(=O)/C1=C\\c1cccs1", "Potency": "inconclusive: 35.5 µM [inhibitor, partial curve, poor fit]"},
      {"smiles": "CC(C)(C)c1nc(N2CCN(C(=O)c3ccco3)CC2)c2nnn(Cc3ccccc3Cl)c2n1", "Potency": "inconclusive: 11.2 µM [inhibitor, single point]"},
      {"smiles": "COC(=O)C1=C(c2ccc(OC)c(OC)c2)C[C@@H]2CC[C@H]1N2C(=O)NCc1ccco1", "Potency": "inconclusive: 10 µM [inhibitor, single point]"},
      {"smiles": "COC(=O)C1=C(c2ccc(-c3ccccc3)c(F)c2)C[C@@H]2CC[C@H]1N2C(=O)N1CCC(C)CC1", "Potency": "active: 4.47 µM"},
      {"smiles": "Cc1cccc(Cn2cccc(C(=O)Nc3ccc4c(c3)OCCO4)c2=O)c1", "Potency": "active: 10 µM"},
      {"smiles": "NC(Cc1ccc(C(F)(F)F)cc1)c1csc(Nc2nncc3ccccc23)n1", "note": "(centres undefined)", "Potency": "inconclusive: 35.5 µM [inhibitor, single point]"},
      {"smiles": "COc1ccc(CN2Cc3cc(-c4cccc(F)c4)ccc3-n3nncc3C2)cc1", "Potency": "active: 11.2 µM"},
      {"smiles": "COC(=O)C1=C(c2ccc(F)cc2OCc2ccccc2)C[C@@H]2CC[C@H]1N2C(=O)NCCOc1ccccc1", "Potency": "inconclusive: 5.62 µM [inhibitor, full curve]"},
      {"smiles": "CCOC(=O)c1ccccc1N", "Potency": "inactive"},
      {"smiles": "C=CCC1(CC)C(=O)NC(=S)NC1=O", "Potency": "inconclusive: 17.8 µM [inhibitor, single point]"},
      {"smiles": "COc1ccc(C(c2nnnn2-c2ccc3c(c2)OCCO3)N2CCC(n3c(=O)[nH]c4ccccc43)CC2)cc1", "note": "(centres undefined)", "Potency": "inconclusive: 15.8 µM [inhibitor, single point]"},
      {"smiles": "CC(C(=O)Nc1ccc(Br)cc1C(=O)c1ccccc1)N1CCCCC1", "note": "(centres undefined)", "Potency": "inconclusive: 10 µM [inhibitor, partial curve, poor fit]"},
      {"smiles": "O=Cc1cn(Cc2ccccc2F)c2ccccc12", "Potency": "active: 0.891 µM"},
      {"smiles": "C[C@]12CC[C@@H]3c4cc(O)c(O)cc4CC[C@H]3[C@@H]1CC[C@@H]2O", "Potency": "inconclusive: 35.5 µM [inhibitor, single point]"},
      {"smiles": "COC(=O)C1=C(c2ccccc2)C[C@@H]2CC[C@H]1N2C(=O)NC1CC1", "Potency": "inactive"}
    ]}
  ]
}
